PubChem BioAssay AID2451 (National Center for Advancing Translational Sciences (NCATS), 2010)
Screen size: about 290,000 compounds; about 2,100 (0.72%) were called active. The inconclusive results got no clear call from the source; some entries with a clear call stand among them for comparison. Calls come from the whole dose curve; as a rule, active = well fitted inhibition curve with a large enough effect; inconclusive = small, poorly fitted or top-dose-only effect, or effect the other way; inactive = flat fitted curve, though single readings scatter. Potencies of inconclusive entries are doubtful fits and often do not repeat.

What follows are compounds tested against Fructose-bisphosphate aldolase (Giardia intestinalis (strain ATCC 50803 / WB clone C6)) (UniProt A8B2U2) (assay: qHTS Assay for Inhibitors of Fructose-1,6-bisphosphate Aldolase from Giardia Lamblia). Details: purified Giardia FBPA; activity, negative = inhibition: at 59.6 µM (top of the series) unless noted.
Method in brief: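 40 nM FBPA preincubated 10 min at RT with compound (up to 57.5 uM final), then substrate plus GAPDH/TPI/NAD/arsenate coupling and diaphorase/resazurin added. Fluorescence read after 20 min at RT, 525/598 nm.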
% is set by controls: 0 for no effect and ±100 for the full control effect; potency is the fitted concentration of half-maximal effect; tags give direction and shape of the fitted curve.
Note: nearly all actives have a fitted effect of over 55% in size.

UniProt A8B2U2, sequence (A8B2U2 whole entry, looked up): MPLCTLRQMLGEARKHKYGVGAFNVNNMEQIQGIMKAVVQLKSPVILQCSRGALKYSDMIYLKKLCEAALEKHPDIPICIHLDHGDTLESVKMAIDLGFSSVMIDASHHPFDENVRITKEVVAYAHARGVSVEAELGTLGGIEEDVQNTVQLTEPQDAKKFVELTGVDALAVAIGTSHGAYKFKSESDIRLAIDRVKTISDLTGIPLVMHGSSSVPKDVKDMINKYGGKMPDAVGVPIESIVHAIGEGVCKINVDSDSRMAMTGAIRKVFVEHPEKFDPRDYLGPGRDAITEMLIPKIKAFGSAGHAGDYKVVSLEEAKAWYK

| Structure (SMILES) | Potency | activity, negative = inhibition |
| --- | --- | --- |
| CCN1CSC(=S)N(Cc2ccc(OC)cc2)C1 | inconclusive: 17.7 µM [inhibitor, single point] |  |
| Cc1ccc(S(=O)(=O)Nc2ccc(O)c3ccccc23)c(C)c1 | inconclusive: 11.2 µM [inhibitor, partial curve] |  |
| CCn1c(C)nc2cc(OC)ccc21 | inactive |  |
| COc1ccc2cc(CCl)c(Cl)nc2c1 | inconclusive: 35.4 µM [inhibitor, single point] |  |
| N=c1n(CCN2CCOCC2)c2ccccc2n1CC(=O)c1ccc(Cl)c(Cl)c1 | inconclusive: 15.8 µM [inhibitor, partial curve] |  |
| Oc1ccccc1N1CCN(c2ncccn2)CC1 | inactive |  |
| C=NC(C(=O)NC1C(=O)N2C1SC(C)(C)C2C(=O)O)c1ccccc1 (stereo not given) | inactive |  |
| COc1ccc(NC(=O)[C@H](Cc2c[nH]c3ccccc23)NC(=O)[C@@H]2Cc3ccccc3CN2)cc1 | inconclusive: 4.47 µM [inhibitor, full curve, poor fit] |  |
| CCOC(=O)Nc1ccc2c(c1)N(C(=O)CNC)c1ccccc1CC2 | inconclusive: 25.1 µM [inhibitor, partial curve] |  |
| COc1ccc(C(CNCC(O)COc2c(C)ccc(C)c2C)N(C)C)cc1 (stereo not given) | inconclusive: 25.1 µM [inhibitor, single point] |  |
| CC(C)(C)OC(=O)[C@H](Cc1ccccc1)NC(=O)c1[nH]cnc1C(=O)Nc1cccc(Cl)c1 | inconclusive: 15.8 µM [inhibitor, single point] |  |
| OC(c1ccccc1)c1nc2ccccc2[nH]1 (stereo not given) | inactive |  |
| CN=c1scc(-c2ccco2)n1/N=C/c1ccc(O)c(O)c1 | inconclusive: 15.8 µM [inhibitor, single point] |  |
| CCc1ccc(OCC(O)CN2CCN(CCO)CC2)cc1 (stereo not given) | inconclusive: 14.1 µM [inhibitor, partial curve] |  |
| CCc1ccc2[nH]c(=O)c(CN(CCN(CC)CC)C(=S)NCc3ccco3)cc2c1 | inactive |  |
| CCOc1ccc(CN2CCN(Cc3ccc4cc(F)ccc4n3)CC2CCO)cc1 (stereo not given) | inconclusive: 22.4 µM [inhibitor, single point] |  |
| S=c1[nH]nc(COc2ccccc2)n1/N=C/C=C/c1ccco1 | inconclusive: 15.8 µM [inhibitor, single point] |  |
| COc1ccc(N2C(=O)CC(NNc3ncc(Cl)cc3Cl)C2=O)cc1 (stereo not given) | active: 15.8 µM |  |
| COC(=O)CN1C(=O)[C@H]2[C@@H](c3ccc(C)o3)N3C(=O)CN(Cc4ccccc4)C(=O)[C@@]3(Cc3ccccc3)[C@H]2C1=O | inactive |  |
| COc1ccc(CCNC2CCC(c3ccccc3)CC2)cc1 (stereo not given) | inconclusive: 22.4 µM [inhibitor, single point] |  |
| Cc1c(OCc2nn[nH]n2)ccc2c(-c3ccccc3)cc(=O)oc12 | inconclusive: 39.8 µM [activator, single point] |  |
| Cc1nnc(NC(=O)CSc2nnc(-c3ccco3)o2)s1 | inconclusive: 15.8 µM [inhibitor, partial curve] |  |
| NC(=S)Cc1nc(-c2ccc(Cl)cc2)cs1 | inactive |  |
| CC(=O)c1sc(Nc2cccc(C)c2)nc1C | inactive |  |
| COc1ccccc1CN1CCC2(CCNCC2)CC1 | inactive |  |

| Structure (SMILES) | Potency | activity, negative = inhibition |
| --- | --- | --- |
| O=C(NCCCN1CCc2ccccc2C1)Nc1ccc(Br)cc1 | inconclusive: 19.9 µM [inhibitor, single point] |  |
| O=C(Cc1ccccc1)N1CCN(Cc2ccc([N+](=O)[O-])cc2)CC1 | inconclusive: 19.9 µM [inhibitor, partial curve] |  |
| COC(=O)/C=C\C(=O)Nc1cccc([N+](=O)[O-])c1 | inconclusive: 44.6 µM [inhibitor, single point] |  |
| C#CCOc1ccccc1CNc1ccccc1 | inactive |  |
| COc1ccccc1N=NC1C(=O)N(C(N)=S)N=C1C (stereo not given) | inconclusive: 2.51 µM [inhibitor, partial curve] |  |
| CCOc1ccc2c(c1)C(C)=CC(C)(C)N2 | inconclusive: 17.7 µM [inhibitor, single point] |  |
| O=S(=O)(Nc1ncccn1)c1ccc(F)cc1 | inconclusive: 28.2 µM [inhibitor, partial curve] |  |
| Cc1nc2sccn2c(=O)c1S(=O)(=O)N1CCN(c2ccccc2)CC1 | inactive |  |
| CCOC(=O)CSc1nc(C)c2ccccc2n1 | inactive |  |
| COc1ccccc1-c1n[nH]c(=S)n1N | active: 15.8 µM |  |
| N#CCCN1CCN(C(=S)c2ccc(-c3cccc(Cl)c3)o2)CC1 | inactive |  |
| COc1ccc(N(CCC(=O)O)S(=O)(=O)c2ccc(C)cc2C)cc1 | inactive |  |
| CC1(C)Cc2c(sc3c2c(=N)n(Cc2ccco2)c(=O)n3CC(=O)Nc2ccccc2)CO1 | inactive |  |
| CCOC(=O)Nc1ccc2c(c1)N(CCCN(C)C)c1ccccc1CC2 | inconclusive: 14.1 µM [inhibitor, partial curve] |  |
| COC(=O)c1ccc(CN(Cc2ccc(C(=O)OC)o2)C(C)(C)C)o1 | inconclusive: 44.6 µM [inhibitor, single point] |  |
| Cc1cc2c(c(=O)n1-c1ccccc1)C1O[C@](c3ccsc3)(Cc3ccccc31)O2 |  | inactive: 0.109% [at 12.9 µM] |
| COc1ccc(Nc2cc(Cl)nc(N)n2)cc1 | inconclusive: 19.9 µM [inhibitor, partial curve] |  |
| CN1CCN(CCCCOc2ccccc2C=O)CC1 | inconclusive: 3.54 µM [inhibitor, full curve] |  |
| CC(C)Oc1cccc(-c2cc(C(=O)NC(=S)N(C)c3ccccc3C(=O)O)c3ccccc3n2)c1 | inconclusive: 17.7 µM [inhibitor, single point] |  |
| COc1ccc(S(=O)(=O)N2CCOC2CNC(=O)C(=O)NCCc2ccc(S(N)(=O)=O)cc2)cc1 (stereo not given) | inactive |  |
| Cc1ccc(NC(=S)NNC(=O)Cn2nc([N+](=O)[O-])cc2C)cc1 | inconclusive: 19.9 µM [activator, partial curve] |  |
| O=C(CSc1nnc2c(n1)[nH]c1ccc(F)cc12)NC1CC1 | inactive |  |
| CCn1c(SCC(=O)c2ccc(O)c(O)c2)nnc1-c1ccccc1 | active: 2.23 µM |  |
| O=C(NC(=S)Nc1ccccn1)c1ccco1 | inconclusive: 15.8 µM [inhibitor, partial curve] |  |
| Cc1ccccc1-c1cc2c(nn1)-c1ccccc1C2=O | inconclusive: 0.397 µM [inhibitor, full curve] |  |

| Structure (SMILES) | Potency | activity, negative = inhibition |
| --- | --- | --- |
| CC(C)CC(NS(=O)(=O)c1ccccc1)C(=O)O (stereo not given) | inactive |  |
| O=C(Nc1ccc(S(=O)(=O)N2CCCC2)cc1)c1ccc(CN2CCc3ccccc3C2)cc1 | inactive |  |
| Cc1ccc(OCCCCN2CCC(C)CC2)cc1 | inconclusive: 14.1 µM [inhibitor, partial curve] |  |
| O=C(CCCC(=O)N(c1ccc2c(c1)OCCO2)C(C(=O)NC1CCCCC1)c1ccc(F)cc1)Nc1ccccn1 (stereo not given) | inactive |  |
| CCCCn1c(-c2ccc(Cl)c(Cl)c2)nc2cc3[nH]c(=O)c(C(C)C)nc3cc21 | inactive |  |
| Cc1ccc(OCCCN2CCCC2)c(C)c1 | inconclusive: 15.8 µM [inhibitor, partial curve] |  |
| Cc1cc(C)nc(N/N=C/c2ccccc2OCC(=O)O)n1 | active: 5.01 µM |  |
| OCCN1CCN(C(c2cccs2)c2ccc3cccnc3c2O)CC1 (stereo not given) | inconclusive: 8.89 µM [inhibitor, full curve, poor fit] |  |
| CCOc1ccc2[nH]c(=O)c(C(c3nnnn3Cc3ccco3)N3CCN(C)CC3)cc2c1 (stereo not given) | active: 0.889 µM |  |
| Cc1ccc(-c2csc(NC(=O)CN3CCC(C(N)=O)CC3)n2)cc1 | inconclusive: 10 µM [inhibitor, partial curve] |  |
| c1ccc(C2CCC(N3CCN(c4ccccc4)CC3)CC2)cc1 (stereo not given) | inconclusive: 31.6 µM [inhibitor, single point] |  |
| CCOc1ccc(N)cc1OC | inconclusive: 3.15 µM [inhibitor, full curve] |  |
| CCOC(=O)C(=NCCCN(C)C)NNc1cc(C(F)(F)F)ccc1Cl | inconclusive: 15.8 µM [inhibitor, single point] |  |
| COc1ccc(CNc2ncc(-c3ccccc3)n2C)c2ccccc12 | inconclusive: 12.6 µM [inhibitor, partial curve] |  |
| CCOc1ccccc1N/C(=C(/C(Cl)=C(Cl)Cl)[N+](=O)[O-])n1cncn1 | inconclusive: 17.7 µM [inhibitor, partial curve] |  |
| CCOc1ccc(CC(=O)Nc2nccs2)cc1 | inactive |  |
| COc1cc(CN2CCC(C(=O)N3CCN(c4ccccc4F)CC3)CC2)ccc1O | inactive |  |
| CCC[C@@H]1C[C@@H](C(=O)NC(C(C)Cl)[C@H]2O[C@H](SC)[C@H](O)[C@@H](O)[C@H]2O)N(C)C1 (stereo not given in full) | inconclusive: 12.6 µM [inhibitor, partial curve] |  |
| Cc1cccn2c(CN(C)C3CCCc4ccccc43)c(C(=O)N3CCOCC3)nc12 (stereo not given) | inconclusive: 19.9 µM [inhibitor, partial curve] |  |
| Cc1ccc(CNC(=O)[C@@H](NC(=O)C2CCN(C(=O)[C@@H]3CCCN3)CC2)C(C)C)cc1 | inconclusive: 7.94 µM [inhibitor, full curve] |  |
| Cc1cccc2cc(COC(=O)c3cccs3)c(=O)[nH]c12 | inactive |  |
| O=C(NNc1c(F)c(F)cc(F)c1F)c1cc2ccccc2oc1=O | inactive |  |
| Cc1ccc(C(=O)Oc2ccc(/C=C3\C(=N)N4N=C(N5CCOCC5)SC4=NC3=O)cc2)cc1 | inconclusive: 39.8 µM [inhibitor, single point] |  |
| CS(=O)(=O)N(CC(=O)Nc1cccc(Br)c1)Cc1ccccc1 | inactive |  |
| N#CC(C#N)=C1C=CC=CN1/C(=C\c1ccccc1Cl)C(=O)c1ccccc1 | inconclusive: 15.8 µM [inhibitor, partial curve] |  |
